Laboratory results as given in paper PMC4336329 (PLoS ONE, 2015).
The whole screen tested about 310,000 compounds, of which about 2,200 (0.71%) showed an effect of 50% or more. Effects have a minus sign here. The list shows a part of the results.

Biological target: human ether-à-go-go-related gene (hERG) potassium channel (human, UniProt Q12809)
Assay: primary screen, population patch clamp on CHO cells stably expressing hERG

Chain of human ether-à-go-go-related gene (hERG) potassium channel (Q12809 whole entry, looked up): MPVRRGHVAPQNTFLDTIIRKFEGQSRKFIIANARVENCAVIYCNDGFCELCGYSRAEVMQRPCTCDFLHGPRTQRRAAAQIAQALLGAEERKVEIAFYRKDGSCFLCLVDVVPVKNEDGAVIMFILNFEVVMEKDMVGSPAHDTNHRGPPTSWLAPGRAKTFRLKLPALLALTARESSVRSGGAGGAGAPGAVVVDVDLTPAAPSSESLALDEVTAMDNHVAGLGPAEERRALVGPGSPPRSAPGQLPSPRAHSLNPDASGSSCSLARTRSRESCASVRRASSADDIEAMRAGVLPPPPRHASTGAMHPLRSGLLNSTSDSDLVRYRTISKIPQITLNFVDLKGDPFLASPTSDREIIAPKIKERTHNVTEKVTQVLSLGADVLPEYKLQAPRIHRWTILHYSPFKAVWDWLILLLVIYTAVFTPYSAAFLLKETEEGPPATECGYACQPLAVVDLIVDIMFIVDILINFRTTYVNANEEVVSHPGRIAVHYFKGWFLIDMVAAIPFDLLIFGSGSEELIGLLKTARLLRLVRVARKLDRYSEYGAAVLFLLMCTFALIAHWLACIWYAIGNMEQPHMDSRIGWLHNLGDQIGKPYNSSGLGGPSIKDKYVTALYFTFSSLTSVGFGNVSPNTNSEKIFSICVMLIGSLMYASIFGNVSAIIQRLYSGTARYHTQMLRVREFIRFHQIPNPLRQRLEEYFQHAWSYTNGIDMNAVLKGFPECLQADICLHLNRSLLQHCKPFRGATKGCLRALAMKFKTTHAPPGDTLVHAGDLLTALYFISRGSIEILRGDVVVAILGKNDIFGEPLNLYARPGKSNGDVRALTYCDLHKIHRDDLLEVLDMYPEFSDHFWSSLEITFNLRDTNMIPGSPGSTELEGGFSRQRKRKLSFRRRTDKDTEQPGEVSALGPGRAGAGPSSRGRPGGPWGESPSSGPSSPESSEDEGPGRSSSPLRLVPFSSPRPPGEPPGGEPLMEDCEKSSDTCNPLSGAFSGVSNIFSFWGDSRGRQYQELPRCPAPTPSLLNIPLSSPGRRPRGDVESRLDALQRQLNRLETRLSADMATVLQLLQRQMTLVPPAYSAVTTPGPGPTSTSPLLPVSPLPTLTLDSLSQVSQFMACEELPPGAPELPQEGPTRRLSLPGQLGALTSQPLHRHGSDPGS

**Q.** Which “hERG current change (%, negative = inhibition) at 1uM” value does the source give for `CC(=C/c1ccccc1)/C=N/n1c(-c2ccncc2)n[nH]c1=S` here?
**A.** The value was 14.3%.

**Q.** Which “hERG current change (%, negative = inhibition) at 1uM” value does the source give for `CCc1cccc(CC)c1-n1c(SCC(=O)N2CCc3ccccc3C2)nnc1-c1cccnc1` here?
**A.** The value was 9.39%.

**Q.** With `CCN(CC)CCCn1c2c(c(SCC(=O)N3CCc4ccccc43)nc1=O)CCC2` as the molecule, how does the “hERG current change (%, negative = inhibition) at 1uM” value read?
**A.** The value was -17.5%.

**Q.** `CCCCNC(=O)CC1NCCNC1=O` (stereo not shown) was tested. Which “hERG current change (%, negative = inhibition) at 1uM” value did it give?
**A.** The value was 15.8%.

**Q.** `O=S(=O)(NC1=NCCCCC1)c1ccc(Cl)cc1Cl` was tested. Which “hERG current change (%, negative = inhibition) at 1uM” value did it give?
**A.** Its value is 15.6%.

**Q.** For `Cc1cnc(C(=O)OC(C)C(=O)Nc2ccccc2-c2ccccc2)cn1` (stereo not shown), which “hERG current change (%, negative = inhibition) at 1uM” value is on record?
**A.** The value was 6.85%.

**Q.** For `COc1ccc(CN(C(=O)c2cc3ccccc3oc2=O)C2CCS(=O)(=O)C2)cc1` (stereo not shown), which “hERG current change (%, negative = inhibition) at 1uM” value is on record?
**A.** The value was 4.33%.

**Q.** How did the “hERG current change (%, negative = inhibition) at 1uM” value turn out when `Cc1ccc(NC2c3ncccc3C(=O)N2Cc2cccs2)cc1C` (stereo not shown) was run?
**A.** The value was 7.22%.

**Q.** How did the “hERG current change (%, negative = inhibition) at 1uM” value turn out when `CCOc1ccc(N(C)Cc2cc(=O)oc3ccc(OC)cc23)cc1` was run?
**A.** Its value is 11.4%.

**Q.** How did the “hERG current change (%, negative = inhibition) at 1uM” value turn out when `C=CCc1cccc(Cl)c1OCCCNC1CCCC1.O=C(O)C(=O)O` was run?
**A.** Its value is -0.107%.

**Q.** `Cc1cc(C)n(CCNS(=O)(=O)c2ccccc2)n1` was tested. Which “hERG current change (%, negative = inhibition) at 1uM” value did it give?
**A.** Its value is 12.8%.

**Q.** Which “hERG current change (%, negative = inhibition) at 1uM” value does the source give for `O=S(=O)(CCN1CCOCC1)c1ccc(OC(F)(F)F)cc1` here?
**A.** The value was 8.75%.

**Q.** Which “hERG current change (%, negative = inhibition) at 1uM” value does the source give for `CC(=O)OC(C#CCN1CCOCC1)c1ccccc1` (stereo not shown) here?
**A.** Its value is -0.843%.

**Q.** `NC(=O)c1ccccc1O` was tested. Which “hERG current change (%, negative = inhibition) at 1uM” value did it give?
**A.** Its value is 11.7%.

**Q.** For `CCOC(=O)c1cnn(CCOC(=O)C(C)(C)C)c1NC(=O)C(C)(C)C`, which “hERG current change (%, negative = inhibition) at 1uM” value is on record?
**A.** Its value is 14.3%.

**Q.** Which “hERG current change (%, negative = inhibition) at 1uM” value does the source give for `CS(=O)(=O)O.OC(c1cc(C(F)(F)F)nc2c(Cl)cc(Cl)cc12)C1CCCCN1` (stereo not shown) here?
**A.** The value was 10.7%.

**Q.** Which “hERG current change (%, negative = inhibition) at 1uM” value does the source give for `Cc1ccc2nc(SCC(=O)Nc3ccc(F)cc3F)[nH]c2c1` here?
**A.** Its value is 12.9%.

**Q.** `CCCOC(=O)Nc1cccc(C(C)=O)c1` was tested. Which “hERG current change (%, negative = inhibition) at 1uM” value did it give?
**A.** Its value is 8.68%.

**Q.** For `CCN(CC(=O)Nc1c(F)cccc1F)C(=O)C1CCN(c2ncnc3sc(C)c(C)c23)CC1`, which “hERG current change (%, negative = inhibition) at 1uM” value is on record?
**A.** The value was -5.95%.

**Q.** With `Cc1cc(Oc2ccc(C#N)cc2)nc(N2CCOCC2)n1` as the molecule, how does the “hERG current change (%, negative = inhibition) at 1uM” value read?
**A.** The value was 10%.

**Q.** For `CN(C)S(=O)(=O)c1ccc(Cl)c(NC(=O)COC(=O)CNC(=O)c2ccco2)c1`, which “hERG current change (%, negative = inhibition) at 1uM” value is on record?
**A.** Its value is 13.1%.

**Q.** With `COc1ccc(CCNC(=O)CSc2ccc3nnc(CCNC(=O)c4ccc(C)cc4)n3n2)cc1OC` as the molecule, how does the “hERG current change (%, negative = inhibition) at 1uM” value read?
**A.** The value was -0.914%.

**Q.** `CSc1ccccc1NC(=O)CSc1nnc(CNC(=O)c2ccccc2F)n1C` was tested. Which “hERG current change (%, negative = inhibition) at 1uM” value did it give?
**A.** The value was 13.7%.

**Q.** How did the “hERG current change (%, negative = inhibition) at 1uM” value turn out when `Cc1ccc2c(c1)N(C(=O)CCC(=O)NCCCN(C)Cc1ccccc1)CCO2` was run?
**A.** The value was -33.8%.

**Q.** With `O=C(CSc1nnc(-c2ccccc2)n1-c1ccc(Cl)cc1)N/N=C/c1ccco1` as the molecule, how does the “hERG current change (%, negative = inhibition) at 1uM” value read?
**A.** The value was 5.86%.

**Q.** For `CCCCOc1ccc(-c2nnc(-c3ccncc3)o2)cc1`, which “hERG current change (%, negative = inhibition) at 1uM” value is on record?
**A.** The value was 11.1%.

**Q.** `COc1ccc(OCC(=O)N2CCN(S(=O)(=O)c3ccccc3[N+](=O)[O-])CC2)cc1` was tested. Which “hERG current change (%, negative = inhibition) at 1uM” value did it give?
**A.** The value was 7.63%.

**Q.** With `COc1cc(OC)c(OC)cc1CNC(=O)c1ccc(S(=O)(=O)N2CC(C)OC(C)C2)cc1` (stereo not shown) as the molecule, how does the “hERG current change (%, negative = inhibition) at 1uM” value read?
**A.** Its value is 5.78%.

**Q.** `O=c1cc2c(nn1Cc1ccccc1Cl)-c1ccccc1CC2` was tested. Which “hERG current change (%, negative = inhibition) at 1uM” value did it give?
**A.** The value was 8.96%.

**Q.** With `COc1ccc(CNc2nc(NC(C)=O)nn2-c2ccccc2)cc1` as the molecule, how does the “hERG current change (%, negative = inhibition) at 1uM” value read?
**A.** Its value is 11.3%.

**Q.** How did the “hERG current change (%, negative = inhibition) at 1uM” value turn out when `Cc1onc(-c2ccccc2Cl)c1C(=O)Nc1ccc(S(=O)(=O)Nc2nccs2)cc1` was run?
**A.** Its value is 15.3%.

**Q.** For `COc1ccc(NC(=O)C2CCN(S(=O)(=O)c3c(C)noc3C)CC2)cc1OC`, which “hERG current change (%, negative = inhibition) at 1uM” value is on record?
**A.** The value was 10.6%.

**Q.** With `COc1ccc2c(c1OC)C(=O)N1C2SC(C)(C)[C@H]1C(=O)NC(C)C` (stereo partly shown) as the molecule, how does the “hERG current change (%, negative = inhibition) at 1uM” value read?
**A.** The value was 15.5%.

**Q.** Which “hERG current change (%, negative = inhibition) at 1uM” value does the source give for `O=C(CCn1nc(-c2ccccc2)ccc1=O)N1CCN(c2ccccn2)CC1` here?
**A.** The value was -14.4%.

**Q.** For `O=c1c([N+](=O)[O-])c(N2CCCC2)c2ccccc2n1-c1ccccc1`, which “hERG current change (%, negative = inhibition) at 1uM” value is on record?
**A.** The value was 4.99%.

**Q.** With `COc1ccccc1C(=O)N1CC(=O)Nc2ccc(F)cc2C1c1ccccc1` (stereo not shown) as the molecule, how does the “hERG current change (%, negative = inhibition) at 1uM” value read?
**A.** The value was 6.42%.

**Q.** Which “hERG current change (%, negative = inhibition) at 1uM” value does the source give for `O=C(c1cnn2ccccc12)N1CCCc2ccccc21` here?
**A.** Its value is 5.5%.

**Q.** For `Cc1nn(CC(=O)NCc2cccc3ccccc23)c(=O)c2ccccc12`, which “hERG current change (%, negative = inhibition) at 1uM” value is on record?
**A.** The value was 11.4%.

**Q.** How did the “hERG current change (%, negative = inhibition) at 1uM” value turn out when `Cc1ccc(NC(=O)c2ccco2)c(NC(=O)c2ccccc2C)c1` was run?
**A.** The value was 11.1%.

**Q.** How did the “hERG current change (%, negative = inhibition) at 1uM” value turn out when `CCc1ccc(-c2cc(C(=O)N3N=C(C(F)F)CC3(O)C(F)F)c3ccccc3n2)cc1` (stereo not shown) was run?
**A.** The value was -11.2%.

**Q.** How did the “hERG current change (%, negative = inhibition) at 1uM” value turn out when `O=C1C=C(c2cccc(Cl)c2O)C[C@@H](c2ccc(Cl)cc2)C1` was run?
**A.** Its value is -0.691%.

**Q.** For `Cc1ccc(Cn2nnnc2CN2CCC(NC(=O)c3ccc(Br)cc3)CC2)cc1`, which “hERG current change (%, negative = inhibition) at 1uM” value is on record?
**A.** The value was -16.3%.

**Q.** How did the “hERG current change (%, negative = inhibition) at 1uM” value turn out when `CS(=O)(=O)N1CCCC(C(=O)Nc2ccccc2Cl)C1` (stereo not shown) was run?
**A.** The value was 28.7%.

**Q.** How did the “hERG current change (%, negative = inhibition) at 1uM” value turn out when `NC(=O)C1CCN(CC(=O)NCc2ccccc2)CC1` was run?
**A.** Its value is 12.9%.

**Q.** Which “hERG current change (%, negative = inhibition) at 1uM” value does the source give for `O=C(CSc1nc2ccccc2c(=O)[nH]1)c1cccs1` here?
**A.** Its value is 7.16%.

**Q.** For `COc1ccc(-n2c(O)c(/C=N/NS(=O)(=O)c3ccc(C)cc3)c3ccccc3c2=O)cc1OC`, which “hERG current change (%, negative = inhibition) at 1uM” value is on record?
**A.** The value was 3.33%.

**Q.** For `COc1ccc(N(C(=O)c2ccco2)S(=O)(=O)c2cc(OC)ccc2OC)cc1`, which “hERG current change (%, negative = inhibition) at 1uM” value is on record?
**A.** Its value is 3.95%.

**Q.** How did the “hERG current change (%, negative = inhibition) at 1uM” value turn out when `Cn1c(=O)oc2cc(S(=O)(=O)N3CCCC(C(=O)Nc4ccc5c(c4)OCCO5)C3)ccc21` (stereo not shown) was run?
**A.** Its value is 1.2%.

**Q.** How did the “hERG current change (%, negative = inhibition) at 1uM” value turn out when `CC(C)C(=O)Nc1ccc2nn(-c3ccc(F)cc3)nc2c1` was run?
**A.** The value was 2.13%.

**Q.** For `COc1ccc(/C=C2\SC(=O)N(CCc3nnc(N)s3)C2=O)cc1`, which “hERG current change (%, negative = inhibition) at 1uM” value is on record?
**A.** The value was -1.81%.

**Q.** How did the “hERG current change (%, negative = inhibition) at 1uM” value turn out when `O=C(CCc1nc(-c2ccccc2F)no1)NC1CCN(Cc2ccccc2)CC1` was run?
**A.** The value was -12.2%.

**Q.** Which “hERG current change (%, negative = inhibition) at 1uM” value does the source give for `O=C(Nc1ccc(N2CCCC2)cc1)c1cccc(Cl)c1Cl` here?
**A.** Its value is 18.8%.

**Q.** With `CN=CC1=C(O)C(C(=O)OC)C(C)(C)CC1=O` (stereo not shown) as the molecule, how does the “hERG current change (%, negative = inhibition) at 1uM” value read?
**A.** The value was 15.8%.

**Q.** How did the “hERG current change (%, negative = inhibition) at 1uM” value turn out when `O=C(C1CCCN(Cc2ccccc2[N+](=O)[O-])C1)N1CCCC1.O=C(O)C(=O)O` (stereo not shown) was run?
**A.** Its value is 9.26%.

**Q.** How did the “hERG current change (%, negative = inhibition) at 1uM” value turn out when `Cc1csc(NC(=O)c2cccc(S(=O)(=O)N3CCCCC3)c2)n1` was run?
**A.** Its value is 12.4%.
